Source: a compilation of properties of binary mixtures (doi:10.1021/ie402890r)
The densities may have been worked out from excess volumes.

Assay: xn = mol fraction of the nth substance listed
Conditions: 101 kPa

CCC(=O)[O-].CCC[n+]1ccn(C)c1 + O
mass density [kg/m3]
Conditions	288.15 K	293.15 K	298.15 K	303.15 K	308.15 K	313.15 K	318.15 K	323.15 K	328.15 K
x2 = 0	1058.8	1055.6	1052.6	1049.6	1046.4	–	1040.3	1037.2	–
x2 = 0.0815	1061.2	1057.9	–	1052	1048.8	1045.7	–	1039.6	–
x2 = 0.1091	1062	1058.8	1055.8	1052.8	1049.6	1046.6	1043.5	1040.4	–
x2 = 0.1351	1062.9	1059.8	1056.7	1053.7	–	1047.5	1044.5	1041.4	1038.4
x2 = 0.1599	1063.8	1060.6	1057.6	1054.6	1051.5	1048.4	1045.3	1042.2	1039.3
x2 = 0.1834	1064.6	1061.5	1058.4	1055.4	1052.3	–	1046.1	–	–
